# PubChem BioAssay AID686979 (National Center for Advancing Translational Sciences (NCATS), 2013)
# “And” between values parts separate entries of the source, which are not always exact repeats. Equal entries are not always repeated. In all, about 420,000 compounds went through this assay and about 50,000 (12%) were called active. Inconclusive means that the source gave no clear call. Such entries were picked first, then a sample of the others. Calls follow the shape of the dose curve; as a rule, active = well fitted inhibition curve with a large enough effect; inconclusive = small, poorly fitted or top-dose-only effect; inactive = flat fitted curve, though single readings scatter. Potencies of inconclusive entries are doubtful fits and often do not repeat.
# Assay: qHTS for Inhibitors of human tyrosyl-DNA phosphodiesterase 1 (TDP1): qHTS in cells in presence of CPT; also: nearly all actives have a fitted effect of over 55% in size
# Settings: chicken DT40 Tdp1-/-;hTDP1 cells + 20 nM CPT, ATP luminescence, 48 h; activity change, negative = growth inhibition: at 46.2 µM (top of the series)
# Outline: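 Cell growth measured by CellTiter-Glo luminescence after a minimum 48 h, 37 C compound exposure with 20 nM CPT in Tdp1-knockout DT40 cells stably expressing hTDP1, seeded 400/well; qHTS titration format.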
# % is scaled to controls: 0 for no effect and ±100 for the full control effect; potency is read from the fitted curve at half-maximal effect; tags tell the direction and shape of the fitted curve.
Structure (SMILES),Potency,"activity change, negative = growth inhibition"
C[C@H](NC(=O)c1ncn2c1C(=O)NC[C@H]2C)c1ccccc1,inactive,–
CS(=O)(=O)c1ccccc1-c1nnc(NC(=O)CCS(=O)(=O)c2ccc(Cl)cc2)o1,"inconclusive: 29.1 µM [inhibitor, single point]",–
O=C(c1cc(-c2ccc(Br)cc2)n[nH]1)N1CCN(S(=O)(=O)c2ccc(Br)cc2)CC1,active: 14.6 µM,–
CCOCCn1c(=O)c2c(nc3n2CCN3c2ccc(CC)cc2)n(C)c1=O,active: 14.6 µM,–
CN(C)C(=N)N=C(N)N,"inconclusive: 2.86 µM [inhibitor, partial curve]",–
CC1CCCC(C)N1C(=O)COC(=O)c1cccc(S(=O)(=O)N(C)c2ccccc2)c1 (stereo not given),"inconclusive: 29.1 µM [inhibitor, single point]",–
CCOc1ccc(/C=N/NC(=O)c2cc3ccccc3cc2OC)cc1,"inconclusive: 29.1 µM [inhibitor, single point]",–
Cc1ccc(C2C(C(=O)c3cc4ccccc4o3)=C(O)C(=O)N2CCN2CCOCC2)o1 (stereo not given),"inconclusive: 29.1 µM [inhibitor, single point]",–
c1ccc2c(-c3cc(C4CCNCC4)[nH]n3)cccc2c1,active: 20.6 µM,–
O=C(c1cc2c(=O)n3ccccc3nc2s1)N1CCN(Cc2ccccc2)CC1,"inconclusive: 18.4 µM [inhibitor, single point]",–
CC(C)C(c1nnnn1Cc1ccccc1)N1CCc2ccccc2C1 (stereo not given),"inconclusive: 29.1 µM [inhibitor, single point]",–
CC(C)(C)OC(=O)[C@H](Cc1ccccc1)NC(=O)c1[nH]cnc1C(=O)Nc1ccccc1F,active: 18.4 µM,–
COc1ccc(C(=O)O/N=C(\N)Cc2ccc(Cl)cc2)cc1OC,active: 16.4 µM,–
COc1cc(/C=C/C(=O)Nc2ccc(C(C)=O)cc2)cc(OC)c1OC,"inconclusive: 29.1 µM [inhibitor, single point]",–
O=C(Nc1cccc(S(=O)(=O)N2CCCC2)c1)c1cc(S(=O)(=O)N2CCOCC2)ccc1F,"inconclusive: 9.2 µM [inhibitor, single point]",–
Cc1cccc(C(=O)Nc2nnc(-c3ccncc3)o2)c1,inactive,–
C=CCCCCCCCCc1nc(SCC(=O)O)n[nH]1,inactive,–
CCOC(=O)c1cnc2ccc(C)cc2c1Nc1ccc(OCc2ccccc2Cl)cc1,"inconclusive: 16.4 µM [inhibitor, single point]",–
COc1ccc(CN(C)C2c3ccccc3-c3ccccc32)cc1,inactive,–
COc1ccc(Cl)cc1C(=O)NNC(=O)COC(=O)c1cccs1,"inconclusive: 29.1 µM [inhibitor, single point]",–
Cc1c(Cl)c([N+](=O)[O-])nn1CCCC(=O)Nc1sc2c(c1C#N)CCC2,inactive,–
CSc1ccccc1C(=O)Nc1cccc(C(C)=O)c1,"inconclusive: 23.1 µM [inhibitor, single point]",–
CN1[C@@H](COCc2ccccc2)C=CS1(=O)=O,–,inconclusive: -34% [inhibitor]
COc1cccc(NC(=O)C2CCN(S(=O)(=O)c3ccc4c(c3)NC(=O)CO4)CC2)c1,active: 23.1 µM,–

Structure (SMILES),Potency,"activity change, negative = growth inhibition"
COc1ccccc1N(CC(=O)NCCSCc1ccccc1Cl)S(C)(=O)=O,"inconclusive: 25.9 µM [inhibitor, single point] and inconclusive: 29.1 µM [inhibitor, single point]",–
CC(O)CNc1nc2ccccc2n1-c1ncnc2sc3c(c12)CCC3 (stereo not given),active: 16.4 µM,–
O=C(CO/N=C1\CCCc2nonc21)Nc1ccc(Br)cc1,"inconclusive: 29.1 µM [inhibitor, single point]",–
O=C1CC(/C=C/c2ccccn2)=Nc2ccccc2N1,"inconclusive: 23.1 µM [inhibitor, single point]",–
CCC(=O)Nc1cccc(-c2cnc3ccccc3n2)c1,"inconclusive: 29.1 µM [inhibitor, partial curve]",–
CCOc1cc(/C=C2\N=C(SC)SC2=O)cc([N+](=O)[O-])c1OC(C)=O,active: 18.4 µM,–
COCCNC(=O)c1c(N)n(CCCn2ccnc2)c2nc3ccccc3nc12,inactive,–
Nc1cc(C(=O)N2CCN(c3ccc([N+](=O)[O-])cc3)CC2)ccc1N1CC2CC(C1)c1cccc(=O)n1C2 (stereo not given),inactive,–
CCC(Sc1nc2ccccc2o1)C(=O)Nc1nnc(C)s1 (stereo not given),"inconclusive: 20.6 µM [inhibitor, single point]",–
CN(C)c1ccc(C(CNC(=O)c2ccc(F)cc2)c2c[nH]c3ccccc23)cc1 (stereo not given),active: 18.4 µM,–
O=C(c1cccc(C(F)(F)F)c1)C1CCCN(Cc2cccc(OCCO)c2)C1 (stereo not given),"inconclusive: 25.1 µM [inhibitor, single point] and inconclusive: 20.6 µM [inhibitor, single point]",–
Cc1ccc(C)c(S(=O)(=O)N(C)c2ccc(OC(=O)C3CCN(C(=O)c4ccc(F)cc4)CC3)cc2)c1,"inconclusive: 6.51 µM [inhibitor, single point]",–
O=C(Nc1ccccc1)N1CCc2ccccc21,"inconclusive: 16.4 µM [inhibitor, single point]",–
CC(=O)c1cc(-c2ccc(F)cc2)n(CCC(=O)Nc2cc(C)[nH]n2)c1C,inactive,–
CCCCCCCCCCS(=O)(=O)N/N=C/c1ccccc1OC,"inconclusive: 20.6 µM [inhibitor, single point]",–
CCOc1ccccc1NC(=O)C(CC(C)C)NS(=O)(=O)c1ccc2c(c1)CCN2C(C)=O (stereo not given),"inconclusive: 29.1 µM [inhibitor, single point]",–
O=C(CCN1Cc2ccccc2OC(c2ccccc2)C1)N[C@@H]1CS(=O)(=O)C[C@H]1O (stereo not given in full),–,inactive: 2.04% [at 9.04 µM]
CCOC(=O)c1ccc(N2C(=O)c3n[nH]c(-c4cccs4)c3C2c2cccc(F)c2)cc1 (stereo not given),"inconclusive: 29.1 µM [inhibitor, single point]",–
CCOc1ccc(N(CC(=O)N2CCN(C(=O)CN(c3ccc(OCC)cc3)S(C)(=O)=O)CC2)S(C)(=O)=O)cc1,inactive,–
CCc1ccc(CNC(=O)C2CCCN(S(=O)(=O)N(CC)c3ccccc3)C2)cc1 (stereo not given),"inconclusive: 20.6 µM [inhibitor, single point]",–
COc1cc(/C(C)=N/NC(=O)CN2CCN(S(=O)(=O)c3ccc(C)cc3)CC2)ccc1O,inactive,–
Cc1cc(Cl)ccc1C(=O)C1CCCN(C(=O)c2snnc2C)C1 (stereo not given),"inconclusive: 29.1 µM [inhibitor, single point]",–
CCOc1ccc(/C=N/OCC(=O)Nc2ccc3c(c2)OCO3)cc1,"inconclusive: 25.9 µM [inhibitor, single point]",–
Cc1ccc(C)c(NC(=O)c2ccc3nccnc3c2)c1,inactive,–

Structure (SMILES),Potency,"activity change, negative = growth inhibition"
COC(=O)c1sc(-c2ccc(C(C)(C)C)cc2)cc1NC(=O)CSCC(=O)O,"inconclusive: 8.2 µM [inhibitor, partial curve, poor fit]",–
Cc1cc(C)c(C(=O)CC(=O)c2ccccc2Cl)c(O)c1,active: 16.4 µM,–
Cc1cc(C)c2cc(C(c3nnnn3CC3CCCO3)N3CCN4CCCC4C3)c(=O)[nH]c2c1 (stereo not given),inactive,–
COc1ccc(C(=O)N/C(=C\c2cn(S(=O)(=O)N(C)C)c3ccccc23)C(=O)NC(C)C)cc1,inactive,–
Cc1ccc(-c2cc(C(=O)N/N=C/c3ccco3)n[nH]2)s1,inactive,–
CC1CCCCC1NC(=O)COc1ccc(C#N)cc1 (stereo not given),inactive,–
CCCCOC(=O)Nc1ccc(C)c(Cl)c1,"inconclusive: 16.4 µM [inhibitor, single point]",–
O=C(CCN1C(=O)/C(=C\c2ccccc2)SC1=S)NCCCN1CCOCC1,"inconclusive: 18.4 µM [inhibitor, single point]",–
CC(=O)CSc1ncnc2sc3c(c12)CCCC3,inactive,–
CCOC(=O)C1=C(C)NC(=O)NC1c1ccc(N(CC)CC)cc1 (stereo not given),"inconclusive: 29.1 µM [inhibitor, partial curve, poor fit]",–
COc1ccc(NC(=O)c2cccc3c(-c4cnn(C)c4)coc23)cc1,"inconclusive: 20.6 µM [inhibitor, single point]",–
CCc1ccc(Nc2nc(N)nc(CSc3nnnn3-c3ccccc3)n2)cc1,"inconclusive: 18.4 µM [inhibitor, partial curve]",–
CCc1ccccc1NC(=O)Cn1ncc2c(C)n(Cc3ccccc3F)c(C)c2c1=O,"inconclusive: 29.1 µM [inhibitor, single point]",–
COc1ccc(Nc2cc(Sc3ccc(OC)cc3)ncn2)cc1,"inconclusive: 23.1 µM [inhibitor, partial curve]",–
CC(=O)Nc1c(Cl)cc2c(c1Cl)Cc1cc(C#N)ccc1-2,inactive,–
COCCNC(=O)C(=O)Nc1ccc2c(c1)N(S(=O)(=O)c1cccs1)CCC2,active: 1.84 µM,–
Cc1cccc(NC(=O)C2CCCN(c3cnccn3)C2)c1 (stereo not given),inactive,–
Cc1cc(=O)oc2ccc(OCc3ccccc3)cc12,"inconclusive: 29.1 µM [inhibitor, single point]",–
COc1ccccc1CSc1nc2c(c(=O)n(C)c(=O)n2C)n1C,"inconclusive: 23.1 µM [inhibitor, single point]",–
CCN(C[C@H]1N[C@@](Cc2ccccc2)(C(=O)OC)[C@H]2C(=O)N(Cc3ccccc3)C(=O)[C@@H]12)S(=O)(=O)c1ccc(C(C)(C)C)cc1,"inconclusive: 29.1 µM [inhibitor, single point]",–
Cc1ccc(CNC(=S)NC2CCCCC2)cc1,"inconclusive: 29.1 µM [inhibitor, single point]",–
COc1ccc(C(=O)C[n+]2ccc(-c3nnc4n3CCC4)cc2)cc1,inactive,–
